Results reported in PMC4336329 (PLoS ONE, 2015).
Out of some 310,000 compounds screened, about 14,000 (4.5%) showed an effect of 50% or more. Effects have a minus sign here. Some of the results follow.

These molecules were tested against human ether-à-go-go-related gene (hERG) potassium channel (human, UniProt Q12809) (assay: primary screen, population patch clamp on CHO cells stably expressing hERG).
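Note: peak tail current of the secondary pulse compared with the same well before compound.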

human ether-à-go-go-related gene (hERG) potassium channel, sequence (Q12809 whole entry, looked up): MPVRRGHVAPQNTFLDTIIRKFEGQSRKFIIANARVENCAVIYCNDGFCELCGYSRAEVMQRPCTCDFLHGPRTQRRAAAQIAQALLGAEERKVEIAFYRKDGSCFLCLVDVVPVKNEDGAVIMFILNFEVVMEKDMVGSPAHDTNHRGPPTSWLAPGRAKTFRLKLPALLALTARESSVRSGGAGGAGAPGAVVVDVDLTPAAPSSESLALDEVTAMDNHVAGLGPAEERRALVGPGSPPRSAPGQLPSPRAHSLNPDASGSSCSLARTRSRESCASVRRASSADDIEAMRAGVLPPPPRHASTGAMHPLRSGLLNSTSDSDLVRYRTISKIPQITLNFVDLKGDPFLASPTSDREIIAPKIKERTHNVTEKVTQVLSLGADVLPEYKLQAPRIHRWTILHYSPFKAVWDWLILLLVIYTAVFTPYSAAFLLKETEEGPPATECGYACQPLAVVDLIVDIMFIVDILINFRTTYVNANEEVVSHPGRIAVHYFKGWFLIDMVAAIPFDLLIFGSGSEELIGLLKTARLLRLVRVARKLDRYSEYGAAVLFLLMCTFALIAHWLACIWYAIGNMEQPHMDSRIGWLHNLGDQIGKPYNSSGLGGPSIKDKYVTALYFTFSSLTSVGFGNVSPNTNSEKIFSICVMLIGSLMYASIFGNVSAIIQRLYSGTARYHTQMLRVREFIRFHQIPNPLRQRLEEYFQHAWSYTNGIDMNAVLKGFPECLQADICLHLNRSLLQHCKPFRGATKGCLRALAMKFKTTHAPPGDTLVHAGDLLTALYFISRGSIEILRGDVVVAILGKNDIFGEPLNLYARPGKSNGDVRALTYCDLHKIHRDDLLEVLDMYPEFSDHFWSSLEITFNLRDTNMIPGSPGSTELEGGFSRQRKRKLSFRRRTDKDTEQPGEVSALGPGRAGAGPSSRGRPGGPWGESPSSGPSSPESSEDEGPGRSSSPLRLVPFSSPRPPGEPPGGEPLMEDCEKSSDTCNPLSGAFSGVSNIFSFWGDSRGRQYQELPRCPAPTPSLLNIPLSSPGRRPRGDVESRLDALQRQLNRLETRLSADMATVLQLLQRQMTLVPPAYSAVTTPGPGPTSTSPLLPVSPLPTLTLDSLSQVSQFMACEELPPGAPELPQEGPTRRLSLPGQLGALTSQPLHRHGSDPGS

In order of falling “hERG current change (%, negative = inhibition) at 10uM” value:
1. CCc1ccc(NC(=S)Nc2cc(C(=O)O)ccc2N2CC3CC(C2)c2cccc(=O)n2C3)cc1 (stereo not shown)  32.2%
2. N#CCCN(Cc1cccnc1)C(=S)NC(=O)c1ccco1  26.2%
3. CCn1c(NC(=O)C(C)C)c2ccccc2nc1=O  24.1%
4. CC(C)C(C)NC(=O)CN1C(=O)NC2(CCCCCC2)C1=O (stereo not shown)  23.7%
5. O=Nc1c(O)n(Cc2c(Cl)cccc2Cl)c2ccccc12  21.2%
6. COc1ccccc1CNC(=O)C1CCC(=O)N1C(C)C (stereo not shown)  21.1%
7. CCCOC(=O)CC1C(=O)NCCN1C(=O)OC(C)(C)C (stereo not shown)  19.3%
8. CCOc1cc(C2C3=C(CCCC3=O)N(CC(=O)O)C3=C2C(=O)CCC3)ccc1OC  19.2%
9. Cc1ccc(C)c(S(=O)(=O)Nc2nc(C)c(C(=O)Nc3ccccc3)s2)c1  18.7%
10. COc1cccc(/C=N/n2c(C3CCCCC3)n[nH]c2=S)c1OC  18%
11. Cc1ccc(C)c(NC(=S)Nc2ccc(S(=O)(=O)Nc3ncccn3)cc2)c1  16.2%
12. O=C(O)c1cccc(-n2cccc2/C=C/[N+](=O)[O-])c1  15.9%
13. O=C(O)CC(CC(=O)Nc1ccc(F)c(Cl)c1)c1ccc(Cl)cc1Cl (stereo not shown)  15%
14. CC(Oc1ccccc1F)C(=O)NNC(=O)CC(C)c1ccccc1 (stereo not shown)  14.8%
15. COc1c2ccoc2nc2c(OC)c(O)ccc12  14.4%
16. COc1cccc(NC(=O)COC(=O)c2ccccc2F)c1  13.8%
17. O=C(NC(Cc1c[nH]c2ccccc12)C(=O)O)c1ccco1 (stereo not shown)  13.5%
18. NC(=O)C1Cc2ccccc2CN1C(=O)c1cccc(Oc2ccccc2)c1 (stereo not shown)  13.2%
19. CC(=O)c1cccc(N(CC(=O)NC2CCCC2)C(=O)c2ccc(C)s2)c1  12.7%
20. NC(N)=NC1=NC(=O)C(Cc2ccccc2Cl)S1 (stereo not shown)  12.6%
21. CCOc1ccc(C(=O)Nc2cccc(-c3ccc4nncn4n3)c2)cc1  12.5%
22. CCOC(=O)N1N=C(c2ccccc2)CC1(O)C(C)(F)F (stereo not shown)  12.1%
23. CC(C)COc1ccc(C(=O)NC(=S)Nc2ccc(CN3CCOCC3)cc2)cc1  12.1%
24. S=c1[nH]nc(COc2ccccc2)n1/N=C/c1cccc(Cl)c1Cl  11.1%
25. C=CCn1c(CSc2ccc(C)cc2)n[nH]c1=S  10.8%
26. CN(C(=O)COC(=O)Cn1c(C(F)(F)F)nc2ccccc21)c1c(N)n(Cc2ccccc2)c(=O)[nH]c1=O  10.1%
27. COc1ccc(S(=O)(=O)N2CCCC(C(=O)NCc3ccco3)C2)cc1OC (stereo not shown)  10.1%
28. COc1ccc(OC)c(C(O)c2nc3ccccc3n2C(C)C)c1 (stereo not shown)  9.26%
29. Cc1ccc(NNC(N)=S)cc1Cl  9.1%
30. N#Cc1ccc(OCC(=O)N/N=C2/CC(c3ccccc3)Oc3ccccc32)cc1 (stereo not shown)  7.83%
31. CS(=O)(=O)N(CC(=O)N1CCN(c2ccccc2F)CC1)C1CCCCC1  7.78%
32. O=C(NCCCc1ccccc1)c1cc(COc2ccc(F)cc2Cl)on1  7.67%
33. CCCCCCSc1ccc(-c2nc3ccc(C)cn3c2NCc2ccccc2)cc1OC.O=C(O)C(F)(F)F  7.47%
34. CCc1cc(=O)oc2c(C)c(OCC(=O)N3CCC(C(=O)O)CC3)ccc12  6.67%
35. Cc1nn(-c2ccccc2)nc1CNC(=O)CC(C)(C)C  6.39%
36. Cc1ccccc1C(C(=O)NC1CCCCC1)N(C(=O)CNC(=O)c1ccco1)c1cccnc1 (stereo not shown)  6.3%
37. Cc1ccc(CSc2nc3c(c(=O)[nH]2)CCC3)cc1  5.97%
38. CCOC(=O)c1cnc(SC)nc1Sc1cc(Cl)ccc1Cl  5.46%
39. COc1cc(-c2cc(C(=O)Nc3cccc(S(=O)(=O)N(C)C)c3)c3ccccc3n2)cc(OC)c1OC  4.81%
40. O=C(Nc1ccccc1-c1nc2ccccc2s1)c1cccnc1  4.64%
41. COc1ccc(NC(=O)Nc2c(C)n(C)n(-c3ccccc3)c2=O)cc1OC  4.25%
42. Cc1cc(NC(=O)c2ccccc2)nc(C)n1  4.11%
43. O=C1CCCN1c1ccc(S(=O)(=O)NCc2ccco2)cc1  3.58%
44. CCn1nc(C(=O)Nc2ccc(S(=O)(=O)Nc3nccs3)cc2)c2ccccc2c1=O  3.33%
45. O=C(Nc1nnc(-c2ccco2)s1)C1CCN(S(=O)(=O)c2ccc(Cl)cc2)CC1  3.2%
46. O=C(CNC(=O)c1ccc(OC(F)F)cc1)NCC1CCCO1 (stereo not shown)  2.87%
47. Cn1c(=O)[nH]c(NC2CCCCC2)c(N=O)c1=O  2.77%
48. CN(C)S(=O)(=O)N1CCC(Oc2cccc(C(=O)NC3CCOC3)c2)CC1 (stereo not shown)  2.63%
49. Cc1cc(/C=N/NC(=O)Cn2c3ccccc3c(=O)c3ccccc32)c(C)n1-c1ccccc1  1.8%
50. Cc1nc(SCC(=O)N2CCOCC2)c2c(C)c(C)sc2n1  1.76%
51. Cc1ccc(NC(=O)CCc2nc3ccccc3[nH]2)cc1C  1.04%
52. Cc1ccnc(NCc2ccc(Cl)cc2)c1  0.582%
53. Cc1cccc(NS(=O)(=O)c2cc(C(=O)OCC(=O)Nc3cc(C)on3)ccc2C)c1  0.401%
54. Cc1ccccc1N1CC(C(=O)N2CCc3ccccc32)CC1=O (stereo not shown)  -0.254%
55. O=C(c1cccc(C(F)(F)F)c1)N1CCC(O)(CS(=O)(=O)Cc2ccccc2)CC1  -0.547%
56. Cc1ccc(-n2cc(-c3ccccc3)[nH]c2=O)cc1F  -0.89%
57. CCOc1ccccc1NS(=O)(=O)c1cn(C)c(=O)n(C)c1=O  -0.921%
58. CCN(CC)CCNC(=S)Nc1ccc2nc(N3CCN(C)CC3)cc(C)c2c1  -1.04%
59. COC(=O)N/N=C\c1ccc(-c2cc(Cl)c(Cl)cc2Cl)o1  -1.58%
60. Cc1coc2cc3oc(=O)c(CCC(=O)O)c(C)c3cc12  -2.01%
61. c1ccc(-c2cc(-c3nn4c(-c5ccco5)nnc4s3)c3ccccc3n2)cc1  -2.06%
62. Cl.NC1=NC2(CCCCC2)N=C(Nc2ccc(Br)cc2)N1  -2.19%
63. O=C1CCCN1c1ccc(S(=O)(=O)N2CCC(c3ccccc3)CC2)cc1  -2.28%
64. COc1cc(C2C3CN(C)CC=C3C(C#N)=C(N)C2(C#N)C#N)ccc1OC(C)C (stereo not shown)  -2.29%
65. CCc1ccc(NC(=O)c2c(Cl)nc(C)c(Cl)c2C)cc1  -3.57%
66. CCCn1c(CNc2ccc(Br)cc2)nc2ccccc21  -3.82%
67. Cc1cccc(CN2CCN(c3nc4nonc4nc3NC3CC3)CC2)c1  -4.44%
68. Cc1ccc(C23CC4CC(CC(C(=O)N(C)C)(C4)C2)C3)cc1  -4.55%
69. N/C(CS(=O)(=O)c1ccccn1)=N\OC(=O)c1ccccc1Cl  -9.18%
70. CC(C)(C)c1nc(NCCO)c2nnn(Cc3ccccc3)c2n1  -10.3%
71. CCOC(=O)C1CCCN(C(=O)c2ccc3c(=O)n(CCOC)c(=S)[nH]c3c2)C1 (stereo not shown)  -10.7%
72. COc1ccc(S(=O)(=O)N2CCC(C(=O)NCc3cccnc3)CC2)cc1Cl  -11.9%
73. O=c1c2ccccc2ncn1Cc1ccc(Cl)cc1  -12.4%
74. Cc1ccc(-c2nc(C(=O)NCCCN3CCOCC3)cc3c2[nH]c2ccccc23)cc1  -15%
75. COc1ccc(/C=N/N2CCOCC2)cc1COc1ccc(F)cc1  -15.3%
76. O=Cc1c(Sc2ccccn2)nc2ccccn2c1=O  -16.3%
77. CC(=O)c1cccc(NC(=O)Nc2cccnc2)c1  -16.9%
78. Cc1ccc(-n2c(SCC(N)=O)nc3c(c2=O)C2(CCCC2)Cc2ccccc2-3)cc1  -18.1%
79. O=C(CNC(=O)c1ccncc1)N/N=C/c1cc(Br)ccc1O  -18.2%
80. CCOC(=O)c1cc(-c2ccccc2)nn1Cc1cc(CC)no1  -20%
81. CN(CCC#N)C(=O)COC(=O)c1ccc(CNS(=O)(=O)c2ccc(F)c(Cl)c2)cc1  -22.4%
82. Cc1cccc(OC(C)C(=O)N2CCN(Cc3ccc4c(c3)OCO4)CC2)c1 (stereo not shown)  -31.4%
83. Cc1cc(C(=O)NCc2ccc(Cl)cc2)n(-c2ccccc2)n1  -37.9%
84. COc1ccccc1C(CNC(=O)c1cccc(NS(=O)(=O)c2ccc(C)c(F)c2)c1)N1CCCC1 (stereo not shown)  -40.9%
85. CCN1CCCC1CNC(=O)Cn1cccc1C(=O)c1ccccc1C (stereo not shown)  -48.9%
86. O=C(c1ccccc1)N1CCN(C(=S)NCc2ccc3c(c2)OCO3)CC1  -59.4%
87. CN(C)C1(CNC(=O)c2cccc(S(=O)(=O)Nc3ccc(Br)cc3)c2)CCCCC1  -66.7%
88. CCCCN(CC)CCNC(=O)c1cc2cc3ccc(Cl)cc3nc2o1  -72.5%
